This experiment concerns 777334-354-R2-J4-PDC tumor spheroids with HUVEC/MSC, viability. In words: Anticancer human tumor 777334-354-R2-J4-PDC patient-derived pancreatic adenocarcinoma cell line growth inhibition [GQUAD]. From the text:
DNA G-quadruplex Stabilizer Agents in Combinations in Complex Spheroids
A high-throughput screen of multi-cell type tumor spheroids was designed to identify active combinations of DNA G-quadruplex stabilizer agents and targeted small molecules. Complex spheroids include a stromal component modeled by human endothelial cells (HUVEC) and fibroblasts modeled by human mesenchymal stem cells (MSCs). The concentration ranges selected for each drug and investigational agent were based upon clinically achievable concentrations if the clinical Cmax of the agent was known.
Compounds. […] If the clinical Cmax for an agent had not been determined, the highest concentration tested was 10 microM. […]

Certain results were filed several times, with different values. They are shown here; other results are not. There may be further records. Values given together are repeats in other runs, samples, wells, individuals or studies. Where only a bound is given, the exact number is not on record here.

A word on the viability, T/C: it is the ratio of treated to control. As usually defined, the IC50 is the point on the concentration scale where inhibition reaches its midpoint.
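Note: spheroids exposed to compounds for 7 days before readout.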

Turning to `Cc1[nH]c2ccc(F)cc2c1-c1nc2c3cccnc3c3ncccc3c2[nH]1`, the viability, T/C (compound alone 10 µM, stronger effect = lower value) is listed as 29.6, 29.2, 30, 28.5, 31.9, 34.3, 43.2, 26.7, 58.6, 42.4, 48.7, 48.9%. For the same compound, the IC50 (compound alone, run of 03/26/2024) is > 10 µM, 6.11 µM, 8.41 µM, 2.77 µM.

Source of the values: PubChem BioAssay AID2060499 (Molecular Pharmacology Branch, DTP, NCI, 2025).
